Measurements reported in patent US20220411483A1 (Chugai, published 2022).

What was measured:
[1] = target: T1, FcγRIa extracellular domain, His tag (human, UniProt P12314 16-292); test: SPR, KD ratio
T1 construct: whole entry named; also called FcgRIa

[2] = target: T2, FcγRIIa R type extracellular domain, His tag (human, UniProt P12318 34-217); test: SPR, KD ratio
T2 construct: extracellular domain; also called FcgRIIaR
T2 sequence (looked up): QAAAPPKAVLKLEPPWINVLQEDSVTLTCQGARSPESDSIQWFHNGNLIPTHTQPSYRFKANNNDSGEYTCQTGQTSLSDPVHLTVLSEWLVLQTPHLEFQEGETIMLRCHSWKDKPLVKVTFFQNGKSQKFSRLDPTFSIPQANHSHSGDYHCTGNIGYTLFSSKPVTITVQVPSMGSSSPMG

[3] = target: T3, FcγRIIa H type extracellular domain, His tag (human, UniProt P12318 34-217); test: SPR, KD ratio
T3 construct: extracellular domain; also called FcgRIIaH
T3 sequence (looked up): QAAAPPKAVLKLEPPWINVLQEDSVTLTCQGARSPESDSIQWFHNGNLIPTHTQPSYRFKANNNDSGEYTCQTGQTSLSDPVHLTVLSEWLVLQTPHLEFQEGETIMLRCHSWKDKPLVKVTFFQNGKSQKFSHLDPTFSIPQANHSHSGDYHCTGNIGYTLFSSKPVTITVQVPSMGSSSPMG

[4] = target: T4, FcγRIIb extracellular domain, His tag (human, UniProt P31994 43-217); test: SPR, KD ratio
T4 construct: extracellular domain; also called FcgRIIb
T4 sequence (looked up): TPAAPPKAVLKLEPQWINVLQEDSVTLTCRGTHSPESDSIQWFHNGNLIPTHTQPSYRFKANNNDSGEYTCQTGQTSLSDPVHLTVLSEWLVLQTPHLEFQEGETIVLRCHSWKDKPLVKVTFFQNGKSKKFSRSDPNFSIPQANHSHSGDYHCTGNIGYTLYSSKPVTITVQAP

[5] = target: T5, FcγRIIIa V type extracellular domain, His tag (human, UniProt P08637 part only); test: SPR, KD ratio
T5 construct: extracellular domain; also called FcgRIIIaV

[6] = target: T1, FcγRIa extracellular domain, His tag; test: SPR kinetics, antibody captured
T1 sequence (P12314 16-292): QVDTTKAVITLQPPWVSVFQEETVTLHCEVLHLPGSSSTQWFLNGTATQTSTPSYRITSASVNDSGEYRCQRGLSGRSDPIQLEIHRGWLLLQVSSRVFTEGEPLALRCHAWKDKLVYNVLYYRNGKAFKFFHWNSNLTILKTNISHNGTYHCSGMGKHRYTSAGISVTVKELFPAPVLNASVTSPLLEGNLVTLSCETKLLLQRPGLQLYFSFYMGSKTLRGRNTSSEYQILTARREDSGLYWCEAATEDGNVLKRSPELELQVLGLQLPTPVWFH

[7] = target: T4, FcγRIIb extracellular domain, His tag; test: SPR kinetics, antibody captured
[8] = target: T2, FcγRIIa R type extracellular domain, …; test: SPR, bound amount per captured antibody
[9] = target: T4, FcγRIIb extracellular domain, His tag; test: SPR, bound amount per captured antibody
human complement C1q = target: T6, human complement C1q (human, UniProt P02745; P02746; P02747); test: SPR, C1q bound per antibody captured on Protein L
human complement C1q, sequence (P02745 23-245 limits assumed, chain 1 of 3): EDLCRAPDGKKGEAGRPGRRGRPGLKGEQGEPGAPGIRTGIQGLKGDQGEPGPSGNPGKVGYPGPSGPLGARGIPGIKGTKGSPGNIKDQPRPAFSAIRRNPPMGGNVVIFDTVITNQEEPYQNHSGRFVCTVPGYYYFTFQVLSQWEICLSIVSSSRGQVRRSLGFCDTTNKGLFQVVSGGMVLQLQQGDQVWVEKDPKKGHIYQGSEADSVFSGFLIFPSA
human complement C1q, sequence (P02746 28-253 limits assumed, chain 2 of 3, further chain): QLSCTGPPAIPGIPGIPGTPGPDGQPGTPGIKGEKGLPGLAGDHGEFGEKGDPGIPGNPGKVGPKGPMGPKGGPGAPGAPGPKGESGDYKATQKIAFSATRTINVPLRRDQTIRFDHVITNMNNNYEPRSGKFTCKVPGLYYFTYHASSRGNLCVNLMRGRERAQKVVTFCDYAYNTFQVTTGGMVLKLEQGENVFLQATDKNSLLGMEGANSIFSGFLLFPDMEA
human complement C1q, sequence (P02747 29-245 limits assumed, chain 3 of 3, further chain): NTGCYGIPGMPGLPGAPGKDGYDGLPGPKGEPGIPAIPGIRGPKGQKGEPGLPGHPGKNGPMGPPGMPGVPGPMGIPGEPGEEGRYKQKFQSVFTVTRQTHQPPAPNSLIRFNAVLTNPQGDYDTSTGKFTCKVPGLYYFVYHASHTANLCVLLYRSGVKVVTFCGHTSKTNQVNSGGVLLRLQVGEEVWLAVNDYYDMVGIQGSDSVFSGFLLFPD
T6 construct: Bought (PROSPEC or Calbiochem); also called human C1q
Method: The interaction between an antibody and human C1q was analyzed using Biacore T200 (GE Healthcare). HBS-EP+ (GE Healthcare) was used as the running buffer, and the measurement temperature was set at 25° C. Chips produced by immobilizing Protein L (ACTIGEN or BioVision) onto Series S sensor Chip CM4 (GE Healthcare) by amine coupling were used.
The antibodies of interest were captured onto these sensor chips, and allowed to interact with human complement C1q (PROSPEC or Calbiochem) diluted in the running buffer. The amount of antibody binding was determined, and comparisons were made among the antibodies. However, since the amount of C1q bound depends on the amount of captured antibodies, corrected values obtained by dividing the amount of C1q bound by the amount of each antibody captured were compared. Furthermore, by reaction with 10 mM glycine-HCl, pH 1.5, the antibodies captured onto the sensor chips were washed, and the sensor chips were recycled and reused.

FcgRIIaR = target: T7, FcgRIIaR (human, UniProt P12318 34-217); test: SPR, amount bound per captured antibody
T7 construct: extracellular domain; also called FcγRIIa R type; FcγRIIa (R type)
T7 sequence (looked up): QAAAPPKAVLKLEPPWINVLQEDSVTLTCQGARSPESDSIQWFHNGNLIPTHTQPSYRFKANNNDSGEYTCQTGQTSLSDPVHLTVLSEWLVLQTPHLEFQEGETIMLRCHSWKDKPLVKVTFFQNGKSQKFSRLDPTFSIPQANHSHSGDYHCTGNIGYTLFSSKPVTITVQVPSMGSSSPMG

[10] = target: T8, human FcγRIa extracellular domain with C-terminal His tag (human, UniProt P12314 16-292); test: SPR, antibody captured, FcgR analyte
T8 construct: Whole entry named; also called FcgRIa

[11] = target: T9, human FcγRIIa R type extracellular domain with C-terminal His tag (human, UniProt P12318 34-217); test: SPR, antibody captured, FcgR analyte
T9 construct: extracellular domain; also called FcgRIIaR
T9 sequence (looked up): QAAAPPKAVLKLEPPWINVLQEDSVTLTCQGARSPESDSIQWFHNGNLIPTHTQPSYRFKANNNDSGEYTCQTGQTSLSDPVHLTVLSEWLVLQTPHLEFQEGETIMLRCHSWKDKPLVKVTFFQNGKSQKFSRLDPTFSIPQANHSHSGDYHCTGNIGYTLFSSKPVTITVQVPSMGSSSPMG

[12] = target: T8, human FcγRIa extracellular domain with …; test: SPR, KD of IL6R-G1d/IL6R-L divided by KD of variant
[13] = target: T9, human FcγRIIa R type extracellular …; test: as above
[14] = target: T10, human FcγRIIa H type extracellular domain with C-terminal His tag (human, UniProt P12318 34-217); test: as above
T10 construct: extracellular domain; also called FcgRIIaH
T10 sequence (looked up): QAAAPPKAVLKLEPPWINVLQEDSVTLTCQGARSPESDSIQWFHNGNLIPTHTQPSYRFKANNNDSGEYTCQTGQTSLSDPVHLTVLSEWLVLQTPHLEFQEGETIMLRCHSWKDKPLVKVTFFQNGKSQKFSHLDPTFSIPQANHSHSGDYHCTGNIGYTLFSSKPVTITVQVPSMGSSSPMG

[15] = target: T11, human FcγRIIIa V type extracellular domain with C-terminal His tag (human, UniProt P08637 part only); test: as above
T11 construct: extracellular domain; also called FcgRIIIaV

B1: IL6R-P723/IL6R-L (antibody, human IgG1, kappa)
heavy: QVQLQESGPGLVKPSETLSLTCAVSGHSISHDHAWSWVRQPPGEGLEWIGFISYSGITNYNPSLQGRVTISRDNSKNTLYLQMNSLRAEDTAVYYCARSLARTTAMDYWGEGTLVTVSS[human IgG1 constant region with L235F P238D (EU numbers) not shown]
light: DIQMTQSPSSLSASVGDRVTITCRASQDISSYLNWYQQKPGKAPKLLIYYTSRLHSGVPSRFSGSGSGTDFTFTISSLQPEDIATYYCQQGNTLPYTFGQGTKVEIKRTVAAPSVFIFPPSDEQLKSGTASVVCLLNNFYPREAKVQWKVDNALQSGNSQESVTEQDSKDSTYSLSSTLTLSKADYEKHKVYACEVTHQGLSSPVTKSFNRGEC
[1]
  Relative FcgRIa-binding Activity: 0.0004 fold of IL6R-G1d/IL6R-L
[2]
  Relative FcgRIIaR-binding Activity: 0.044 fold of IL6R-G1d/IL6R-L
[3]
  Relative FcgRIIaH-binding Activity: 0.011 fold of IL6R-G1d/IL6R-L
[4]
  Relative FcgRIIb-binding Activity: 2.45 fold of IL6R-G1d/IL6R-L
[5]
  Relative FcgRIIIaV-binding Activity: 0.009 fold of IL6R-G1d/IL6R-L
[6]
  Kd: 860 nM
[7]
  Kd: 2100 nM
[8]
  Relative FcgRIIaR-binding Activity: 24 % of IL6R-G1d/IL6R-L
[9]
  Relative FcgRIIb-binding Activity: 128 % of IL6R-G1d/IL6R-L

B2: IL6R-G4d/IL6R-L (antibody, human IgG4 S228P, kappa)
heavy: QVQLQESGPGLVKPSETLSLTCAVSGHSISHDHAWSWVRQPPGEGLEWIGFISYSGITNYNPSLQGRVTISRDNSKNTLYLQMNSLRAEDTAVYYCARSLARTTAMDYWGEGTLVTVSSASTKGPSVFPLAPCSRSTSESTAALGCLVKDYFPEPVTVSWNSGALTSGVHTFPAVLQSSGLYSLSSVVTVPSSSLGTKTYTCNVDHKPSNTKVDKRV[human IgG4 Fc with S228P (EU numbers) not shown]
light: DIQMTQSPSSLSASVGDRVTITCRASQDISSYLNWYQQKPGKAPKLLIYYTSRLHSGVPSRFSGSGSGTDFTFTISSLQPEDIATYYCQQGNTLPYTFGQGTKVEIKRTVAAPSVFIFPPSDEQLKSGTASVVCLLNNFYPREAKVQWKVDNALQSGNSQESVTEQDSKDSTYSLSSTLTLSKADYEKHKVYACEVTHQGLSSPVTKSFNRGEC
notes: Human IgG4 with S228P and without C-terminal Gly-Lys
Human complement C1q
  Amount of C1q-binding when that for G1d is Defined as 100: 15.5 G1d=100

B3: IL6R-P724/IL6R-L (antibody, human IgG1, kappa)
heavy: QVQLQESGPGLVKPSETLSLTCAVSGHSISHDHAWSWVRQPPGEGLEWIGFISYSGITNYNPSLQGRVTISRDNSKNTLYLQMNSLRAEDTAVYYCARSLARTTAMDYWGEGTLVTVSS[human IgG1 constant region with G237Q P238D (EU numbers) not shown]
light: DIQMTQSPSSLSASVGDRVTITCRASQDISSYLNWYQQKPGKAPKLLIYYTSRLHSGVPSRFSGSGSGTDFTFTISSLQPEDIATYYCQQGNTLPYTFGQGTKVEIKRTVAAPSVFIFPPSDEQLKSGTASVVCLLNNFYPREAKVQWKVDNALQSGNSQESVTEQDSKDSTYSLSSTLTLSKADYEKHKVYACEVTHQGLSSPVTKSFNRGEC
[1]
  Relative FcgRIa-binding Activity: 0.01 fold of IL6R-G1d/IL6R-L
[2]
  Relative FcgRIIaR-binding Activity: 0.031 fold of IL6R-G1d/IL6R-L
[3]
  Relative FcgRIIaH-binding Activity: 0.008 fold of IL6R-G1d/IL6R-L
[4]
  Relative FcgRIIb-binding Activity: 1.13 fold of IL6R-G1d/IL6R-L
[5]
  Relative FcgRIIIaV-binding Activity: 0.007 fold of IL6R-G1d/IL6R-L
[6]
  Kd: 33 nM
[7]
  Kd: 4600 nM
[8]
  Relative FcgRIIaR-binding Activity: 17.8 % of IL6R-G1d/IL6R-L
[9]
  Relative FcgRIIb-binding Activity: 101 % of IL6R-G1d/IL6R-L

B4: IL6R-P725/IL6R-L (antibody, human IgG1, kappa)
heavy: QVQLQESGPGLVKPSETLSLTCAVSGHSISHDHAWSWVRQPPGEGLEWIGFISYSGITNYNPSLQGRVTISRDNSKNTLYLQMNSLRAEDTAVYYCARSLARTTAMDYWGEGTLVTVSS[human IgG1 constant region with P238D Y296D (EU numbers) not shown]
light: DIQMTQSPSSLSASVGDRVTITCRASQDISSYLNWYQQKPGKAPKLLIYYTSRLHSGVPSRFSGSGSGTDFTFTISSLQPEDIATYYCQQGNTLPYTFGQGTKVEIKRTVAAPSVFIFPPSDEQLKSGTASVVCLLNNFYPREAKVQWKVDNALQSGNSQESVTEQDSKDSTYSLSSTLTLSKADYEKHKVYACEVTHQGLSSPVTKSFNRGEC
[1]
  Relative FcgRIa-binding Activity: 0.0206 fold of IL6R-G1d/IL6R-L
[2]
  Relative FcgRIIaR-binding Activity: 0.046 fold of IL6R-G1d/IL6R-L
[3]
  Relative FcgRIIaH-binding Activity: 0.011 fold of IL6R-G1d/IL6R-L
[4]
  Relative FcgRIIb-binding Activity: 2.75 fold of IL6R-G1d/IL6R-L
[5]
  Relative FcgRIIIaV-binding Activity: 0.008 fold of IL6R-G1d/IL6R-L
[6]
  Kd: 16 nM
[7]
  Kd: 1900 nM
[8]
  Relative FcgRIIaR-binding Activity: 24.5 % of IL6R-G1d/IL6R-L
[9]
  Relative FcgRIIb-binding Activity: 136 % of IL6R-G1d/IL6R-L

B5: IL6R-P742/IL6R-L (antibody, human IgG1, kappa)
heavy: QVQLQESGPGLVKPSETLSLTCAVSGHSISHDHAWSWVRQPPGEGLEWIGFISYSGITNYNPSLQGRVTISRDNSKNTLYLQMNSLRAEDTAVYYCARSLARTTAMDYWGEGTLVTVSS[human IgG1 constant region with P238D K322E (EU numbers) not shown]
light: DIQMTQSPSSLSASVGDRVTITCRASQDISSYLNWYQQKPGKAPKLLIYYTSRLHSGVPSRFSGSGSGTDFTFTISSLQPEDIATYYCQQGNTLPYTFGQGTKVEIKRTVAAPSVFIFPPSDEQLKSGTASVVCLLNNFYPREAKVQWKVDNALQSGNSQESVTEQDSKDSTYSLSSTLTLSKADYEKHKVYACEVTHQGLSSPVTKSFNRGEC
FcgRIIaR
  Relative FcgRIIaR-binding Activity: 26.6 IL6R-G1d/IL6R-L=100
Human complement C1q
  Amount of C1q-binding when that for G1d is Defined as 100: 14.1 G1d=100

B6: IL6R-F648/IL6R-L (antibody, human IgG1, kappa)
heavy: QVQLQESGPGLVKPSETLSLTCAVSGHSISHDHAWSWVRQPPGEGLEWIGFISYSGITNYNPSLQGRVTISRDNSKNTLYLQMNSLRAEDTAVYYCARSLARTTAMDYWGEGTLVTVSS[human IgG1 constant region with P238D (EU numbers) not shown]
light: DIQMTQSPSSLSASVGDRVTITCRASQDISSYLNWYQQKPGKAPKLLIYYTSRLHSGVPSRFSGSGSGTDFTFTISSLQPEDIATYYCQQGNTLPYTFGQGTKVEIKRTVAAPSVFIFPPSDEQLKSGTASVVCLLNNFYPREAKVQWKVDNALQSGNSQESVTEQDSKDSTYSLSSTLTLSKADYEKHKVYACEVTHQGLSSPVTKSFNRGEC
[10]
  Kd: 6.4 nM
[11]
  Kd: 16000 nM
[12]
  Relative FcgRIa-binding Activity: 0.05
[13]
  Relative FcgRIIaR-binding Activity: 0.07
[14]
  Relative FcgRIIaH-binding Activity: 0.017
[15]
  Relative FcgRIIIaV-binding Activity: 0.006
